Experimental findings from article PMC11082251 are described below.

This assay has as its target endogenous p65 (RelA/p65), wild type (human (endogenous in HEK293T)), Q04206. Put plainly: co-IP; endogenous proteins in p65^+/+, p65^S180D/KI, p65^S180A/KI and CLK2^−/− HEK293T cells, in the presence or absence of TNF-α stimulation; results normalised to total p65. The following applies: remark: other sources report otherwise.

No constants are given. Whether binding was seen depends on the method and setting. In cells and extracts the contact can be indirect. Some entries that bind do so weakly or less than the wild type.

B1: endogenous IκBα, P25963 1-317 (protein)
chain: MFQAAERPQEWAMEGPRDGLKKERLLDDRHDSGLDSMKDEEYEQMVKELQEIRLEPQEVPRGSEPWKQQLTEDGDSFLHLAIIHEEKALTMEVIRQVKGDLAFLNFQNNLQQTPLHLAVITNQPEIAEALLGAGCDPELRDFRGNTPLHLACEQGCLASVGVLTQSCTTPHLHSILKATNYNGHTCLHLASIHGYLGIVELLVSLGADVNAQEPCNGRTALHLAVDLQNPDLVSLLLKCGADVNRVTYQGYSPYQLTWGRPSTRIQQQLGQLTLENLQMLPESEDEESYDTESEFTEFTEDELPYDDCVFGGQRLTL
In the case of B1, the binding entry is reported as “binds”.
